According to paper PMC12136788:
The list shows a part of the results.

B1: chr11:46405157:46405158:+_ENSG00000110492_ENST00000395566|hu_hu|hu_hu_hu_mus_False|8_88 (ssRNA)
RNA: GGGAGUUCUACAGUCCGACGAUCCCCUCCCCACUUUGGGCACUUGGUGAGAGGGACAGAGGACAGGCGUGAUUGACAGAGCUGACAGGAAGACAAAAGGCACUGGUGGGUUAUAUCUUGGGCCUGUGAGAGGGAGGGGCUCCGCAACAGAGGAUUGAGCAUCA
B2: chr4:95690885:95690886:+_ENSMUSG00000028572_ENSMUST00000156910|mus_mus|mus_mus_mus_hu_False|68_98 (ssRNA)
RNA: GGGAGUUCUACAGUCCGACGAUCUUUAGAAAAUGUUAAUGUUAAAUCUAAAAUAUUUUCAAAGGCUAGUCUUAUUUUACCAGAAGUCACAGGCAAGCAGACACUACAAGAAUAUAUGAAAAUGAAACUCAACAAUAUAACUGUCAACAGAGGAUUGAGCAUCA
B3: chr7:141441981:141441982:+_ENSG00000106028_ENST00000265304|hu_mus|hu_hu_hu_mus_False|8_38 (ssRNA)
RNA: GGGAGUUCUACAGUCCGACGAUCCUCAUGUCUUACAAACUGACGAAAUACCUGUAACACAGGUCUUCGAAACAUGGCUUCUGUUUUUCUUACAACCAGUCUAAUCUGCUUUUCCUAAAGGAAAGAAUAACCCGAGCAAAAUGACAACAGAGGAUUGAGCAUCA
B4: chr16:17038481:17038482:+_ENSMUSG00000063358_ENSMUST00000069107|mus_hu|FALSE|FALSE (ssRNA)
RNA: GGGAGUUCUACAGUCCGACGAUCCUUGUCCUGACAAAUUUAAGAUCUGUAUCCUGGCUGGAAUCUAGCAGUCUCUUCAAAAAUUAGUUCUUUGAGCUUUUCCUUAGGCAAGUCAUCCAAUUCCAUGUCGAACUUGAAUGGUGCCAACAGAGGAUUGAGCAUCA
B5: chr8:79514811:79514812:+_ENSG00000171033_ENST00000352966|hu_hu|FALSE|FALSE (ssRNA)
RNA: GGGAGUUCUACAGUCCGACGAUCCACCAAACAGACUGAAUUCAGGUGAUAUUCACAUUAAUGGAUAUUUUCAAAUGUCUCUAUAAUAAAGCAAUGGAGUCUUGAUGAAUCUGUUAGACUUAAUCAACUCAUCAACAUACAAUGCAACAGAGGAUUGAGCAUCA
B6: 107689004_107690831_804_CDS_ENSMUSG00000042590_ENSMUST00000080856|mouse|control|control (ssRNA)
RNA: GGGAGUUCUACAGUCCGACGAUCCUCCAUAUUCUUAUGAGGUUCCACAAAUCCAUUCACAGUUAACUUCCGCAGCACUUUUAACGAUAGCAGUGUUCGCUCUAGUGAACUCAGAACCGCAGCUUCAUUGCCAGAAGAAACGUGCAACAGAGGAUUGAGCAUCA
B7: chr12:42180722:42180723:-_ENSMUSG00000036295_ENSMUST00000043884|mus_hu|mus_mus_mus_hu_True|18_108 (ssRNA)
RNA: GGGAGUUCUACAGUCCGACGAUCCUGUAGGAGCAGAAUCUGUGUGUUAGCUGGCAAUCUGGCUGGGAAAGUUAAAAGACCUAAAUCAUUACAAUCCACUGUAGAUGCUUCCAUAUAGAUGGAUCUCGGUGUAAACCAAGGCCUCAACAGAGGAUUGAGCAUCA
B8: chrX:100668114:100668115:+_ENSG00000126945_ENST00000316594|hu_mus|motif|central (ssRNA)
RNA: GGGAGUUCUACAGUCCGACGAUCUCCCAUCAUCUGGCUACCGUAAGCACCACCACUUGCCCCUGCUGUAGAAUUCAAAAAGAGCUCGGCAUAGCUAUGAUCAUAAGCUCCUCCACUUGUCCCUGCGGUAGAAUUCAAGAAGAGCAACAGAGGAUUGAGCAUCA
B9: 153482016_153483098_2329_CDS_ENSG00000157827_ENST00000288670|human|control|control (ssRNA)
RNA: GGGAGUUCUACAGUCCGACGAUCAAUGGCAGGUCCUUGGGCUUUUGUCUUGAAUAUUUCCUCAAAUUCAUCCACAUUUAAAUCCUCCAGAAUUCGCUCAUCAUCAAUUUCAUUGAAGACUGUGCCAUUGAUCUGAUUGGGCUUCAACAGAGGAUUGAGCAUCA
B10: chr17:27613171:27613172:-_ENSG00000108256_ENST00000225388|hu_mus|FALSE|FALSE (ssRNA)
RNA: GGGAGUUCUACAGUCCGACGAUCCGUAGGAGAGGCCAGGGGAUUUUGAUUUUCUAUUUCGUAGUCCUUUGAGAGAAACACUAAAGCACCUUGACUACUGGUGUCUGCUUUUUGCAGGUCACCUAUAUGACUGGGGUCCAAGGACAACAGAGGAUUGAGCAUCA
B11: chr14:76906579:76906580:+_ENSMUSG00000022010_ENSMUST00000022587|mus_mus|FALSE|FALSE (ssRNA)
RNA: GGGAGUUCUACAGUCCGACGAUCGGGGAGAAAGCGAGAACAGCGUGUGAGUCUCACGUCUCUUUCGUAGACAGCAAUGAAAUGGGUGACUGUGGAGGCGGCUUCUCUCUAGCACAUCUCUUCGGUCUGUUCAGUUCAGACAGCCAACAGAGGAUUGAGCAUCA
B12: chr4:141323876:141323877:-_ENSMUSG00000040697_ENSMUST00000038014|mus_mus|FALSE|FALSE (ssRNA)
RNA: GGGAGUUCUACAGUCCGACGAUCAGUCAGGUCAGGGAGCACAGCUUCUGAAGACAGAAAUGCUGGAUCCUUCCGCAGCUGGUCAAGAUAACCCAAAAGGACGAACUUAUCGCUCUCACUGCCGGUCCAGGGAUCCUCCAGGGUCAACAGAGGAUUGAGCAUCA
B13: chr2:25961539:25961540:-_ENSG00000143970_ENST00000336112|hu_hu|FALSE|FALSE (ssRNA)
RNA: GGGAGUUCUACAGUCCGACGAUCCACUCCUCACCCCCAUUAUAGCAAAUCACUUCACCAGAGAGUUAUUUAUGGCUCUCUAAGGUGGAGAAAGGCAAUAAUAAACAACAGAAUGUUAACUGUCAGGUCAUUAAUAUGUAUGACCAACAGAGGAUUGAGCAUCA
B14: chr3:9412954:9412955:+_ENSG00000134077_ENST00000452837|hu_mus|hu_hu_hu_mus_False|28_58 (ssRNA)
RNA: GGGAGUUCUACAGUCCGACGAUCGGUUGAUAUCUCUUCUUUGAUGGCUGGAUUUUCAUAAUAGUCCAAGAUAUGUGAAUCUAAAGCGCUGCUGGCAUGCUUUUUCUUAACAUUUCUCUCAUCUGCUUUGUCUCCUUGUCCACACAACAGAGGAUUGAGCAUCA
B15: chr4:25749455:25749456:-_ENSG00000091490_ENST00000264868|hu_hu|hu_hu_hu_mus_False|1_98 (ssRNA)
RNA: GGGAGUUCUACAGUCCGACGAUCGCACUAUGACCUCCCCUAGAAAACACAGGGGGAAAAAAUGUAAACCAAUGUACAAUGUUAUCGCCUUCCCUGUGUGUGGAGUGUUUGUCUCAAGGCUCCUUCUAGCUGCUGGACUGCUAGCAACAGAGGAUUGAGCAUCA
B16: chr4:24557968:24557969:-_ENSG00000109606_ENST00000336812|hu_mus|FALSE|FALSE (ssRNA)
RNA: GGGAGUUCUACAGUCCGACGAUCACCCAUGAGAAUAUCUGUAGCCAAUGUUCUUUCAUGGGCCUCAUCAAGAAUUAUCACACCAUAACGCUCCAGAAGGGGAUCGUUCAUGGCUUCACGAAGUAGCAUCCCGUCAGUCAUAUACAACAGAGGAUUGAGCAUCA
B17: chr4:95690885:95690886:+_ENSMUSG00000028572_ENSMUST00000156910|mus_mus|mus_mus_mus_hu_False|8_58 (ssRNA)
RNA: GGGAGUUCUACAGUCCGACGAUCUUUAGAAAAUGUUAAAUACCAUGCUAAAAUAUUUUCAAAGGCUUAUUUUAUUUUACUAAAAGACACAGGCAAGCAGACACUACAAGAAUAUAUGAAAAUGAAACAACAGUGUAUAACUGUCAACAGAGGAUUGAGCAUCA
B18: chr11:116197844:116197845:-_ENSMUSG00000052949_ENSMUST00000100202|mus_hu|FALSE|FALSE (ssRNA)
RNA: GGGAGUUCUACAGUCCGACGAUCAGAGGGGUACACAGAUGGCACAAGCAGUAUACACAUGCACACACCAGGUGUGCAGACCAAAGCAAAGUGAGCGACCAGCGUGCUAAACUCCAGGUGGGCAGGACCCCAACUCCCAGGUGACAACAGAGGAUUGAGCAUCA
B19: 232645778_232645898_181_3pUTR_ENSG00000156973_ENST00000287600|human|control|control (ssRNA)
RNA: GGGAGUUCUACAGUCCGACGAUCUGAAGCCCCUCAGGAUCUCCCUGGCCCGCUCGUCCUUGGCUGACAUGAUGCGGCGGUCGCCGCCCGCGGCUUUCUCACUCUGGUCGGCGGAGCCUCGCAGACGGUGCCCAGGAGCCGAGGCAACAGAGGAUUGAGCAUCA
B20: chrX:70775091:70775092:+_ENSG00000147162_ENST00000373719|hu_mus|motif|central (ssRNA)
RNA: GGGAGUUCUACAGUCCGACGAUCAUCGGGGAAAUGGGGUUGCAGUUCGAUAGCUCUCCUGUAGGUAUCAAUGGCCAGGUCGGUUAGGCCUUGCUCGUAGUACACACAAGCCAGGUUGCCGUGCACCACCGCAUGAUUUGGGCUCAACAGAGGAUUGAGCAUCA
B21: chr7:54168817:54168818:-_ENSMUSG00000014402_ENSMUST00000014546|mus_mus|FALSE|FALSE (ssRNA)
RNA: GGGAGUUCUACAGUCCGACGAUCGUUUGAGAUCUUUGUACAUAGCGAUGACAUUGACAGUUUGACGGACGGUUAGAUCUCUAUAUUUGUACUUGGACAUCAUCUUCUUCAGCUGACUCUCGGACACCGCCAUGGCGCGCUCCUCAACAGAGGAUUGAGCAUCA
B22: chrX:45232703:45232704:-_ENSMUSG00000031099_ENSMUST00000088973|mus_mus|FALSE|FALSE (ssRNA)
RNA: GGGAGUUCUACAGUCCGACGAUCAGAUGGAACCCAUCGUUUAAAUUCAUUCAUCCAGUUAUGUAAAGUAGACUUGGGAACUAAAACCAUGUGGGGUCCAGGAAUGUUUCUGUAGUGCUUCAGGUAACCAAGCAAGGCAAUGGUCAACAGAGGAUUGAGCAUCA

Molecular target: T1, UNK ZnF1-3 (human, UniProt Q9C0B0 31-174)
T1 sequence: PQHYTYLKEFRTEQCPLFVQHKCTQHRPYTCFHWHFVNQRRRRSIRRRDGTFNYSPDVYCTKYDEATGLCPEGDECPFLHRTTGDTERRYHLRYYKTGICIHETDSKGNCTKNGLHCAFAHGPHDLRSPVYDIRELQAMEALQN
Test: nsRBNS (natural sequence RNA bind-n-seq); RBNS binding buffer (assumed for nsRBNS): 25 mM Tris pH 7.5, 150 mM KCl, 3 mM MgCl2, 0.01% Triton X-100, 500 ug/ml BSA, 20 U/ml SUPERase-In, 4 C; UNK is unkempt and MSI1 is Musashi-1; names of the RNAs are library labels; protein concentration not given here; high values mean tight binding

| Binder | binding signal [enrichment R] |
| --- | --- |
| B1 | 2.81 |
| B2 | 1.7 |
| B3 | 0.782 |
| B4 | 0.558 |
| B5 | 1.04 |
| B6 | 0.733 |
| B7 | 0.8 |
| B8 | 2.07 |
| B9 | 0.735 |
| B10 | 1.23 |
| B11 | 0.932 |
| B12 | 1.13 |
| B13 | 1.83 |
| B14 | 0.309 |
| B15 | 1.01 |
| B16 | 0.416 |
| B17 | 1.89 |
| B18 | 1.54 |
| B19 | 0.48 |
| B20 | 0.39 |
| B21 | 0.673 |
| B22 | 1.35 |
